We go through 44 sequences from the supplement of paper PMC11417369.

Some of the results follow.

The subject of the assay is PfHDP1 homeodomain (GST-tagged). Kind of assay: gcPBM binding intensity (ln(normalized median fluorescence intensity)); higher = stronger DNA binding. The procedure, abridged: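 Probes on an Agilent 4 × 180k array were primer-extended, double-stranded and 36 bp long, taken from intergenic genomic regions, with negative controls added. GST-tagged P. falciparum DNA-binding domains from E. coli, about 25 μg on average, were applied to the array for 1 h in 1× PBS containing 1% milk, 0.2 mg/ml BSA, 0.5% salmon testes DNA and 0.03% Triton X-100. Binding intensity, obtained after Alexa488 anti-GST antibody detection and a 488 nm scan, is the highest Masliner-normalised natural-log median intensity across replicate spots of either probe orientation.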
“ATATATATATATATATCATTTATTTAAAAATTTTTT [TGCATGCA_negctrl_site228]”: the “gcPBM binding intensity (ln)” value is 9.41. Under CTCATTTTTGTACAGGTGCACTTATCGTTACACTAT stands 9.97. Under “AACACATAAAAAAGGTGTACCATAAAATATACATAC [XGTACX_site4478]” stands 6.61; under “CTGTGTTTTGGTTGTACACACGCTACATTATATATT [CACACA_site5487]”, 7.56; under “TTTTAATTTTGTTGTTGTACAAATAACATGTGAGGG [XGTACX_site4401]”, 7.54. For “ATATACATTAAATGAACACACATAAATAAATTACAT [CACACA_site2852]” the value was 6.42; for “TATTTTATCATTTTTTTTATGTCTTTATTTCACTTG [CACACA_negctrl_site1398]”, 6.51; for “ATATACACATTAATAACACACAATATGATAACAAAT [CACACA_site7670]”, 6.73. As to “TAGAATTAAGTTATTGCACACAGGAAAAGTTTCATA [CACACA_site1634]”, the “gcPBM binding intensity (ln)” value worked out at 9.22. For the sequence “AATCCTTACGAACACACACACACGAATAAATAAAAA [CACACA_site6363]”, the “gcPBM binding intensity (ln)” value worked out at 6.97. Turning to “TCTTCGAAACTATCACTCTCACAATTCATTTATTTT [TGCATGCA_negctrl_site156]”, the “gcPBM binding intensity (ln)” value was 6.46. For “ATAAATAAGAAAAATTGTACAATATTTTTTAGGATA [XGTACX_site3163]” the value was 6.47; for “TTTATGTAATATACATGTACAGAATATAAAATATAT [XGTACX_site6906]”, 6.49; for “TTAACTTCTTTAAAATGTACATATATTAAATAATAA [XGTACX_site3391]”, 6.29. Consider “AAAAAATATAGATGCACACACAAAAAAACAAATTAA [CACACA_site6718]”, for which the “gcPBM binding intensity (ln)” value is 8.71. As for “GTATTATTATTTTATGCATGTACATTGAATTATATT [TGCATGCA_site34]”, the “gcPBM binding intensity (ln)” value came to 6.88. “ATATATATATATCAGAGTACATTCTTTAAAATATAT [XGTACX_site5915]”: the “gcPBM binding intensity (ln)” value is 8.7. Take “AGATTTTGAAATTATAAAAAAATTTCACTTCATTTA [CACACA_negctrl_site888]”: the “gcPBM binding intensity (ln)” value amounted to 5.65. Under “TATTCTTACATCACCTCACACATTTAATATTCCTTA [CACACA_site4693]” stands 6.75; under “ATATGAGTATAAAAATGTACGGAGCAACTAAATATA [XGTACX_site620]”, 7.36; under “TATAAATATGTATATGCATGTGGAATATATAATTAA [TGCATGCA_site226]”, 6.76.

With “AAATAAAACAGACACACACACACATACACAAAAAAA [CACACA_site7753]”, the “gcPBM binding intensity (ln)” value came to 6.85. Take “TGTCACCTATTTTTTTGTACGTATGTCCATTTTTTT [XGTACX_site4368]”: the “gcPBM binding intensity (ln)” value came out at 6.62.

For the sequence “ATTACAACCACATTGACATGCAAATGTAGAGGGGGA [TGCATGCA_site694]”, the “gcPBM binding intensity (ln)” value is 7.57. “TTTATTTTTAACAGTGCACACATAACTTAATTATAT [CACACA_site8681]”: the “gcPBM binding intensity (ln)” value was 9.52. For “TATACAGATGGACACACACACATAAATAAATATATA [CACACA_site4863]” the value was 6.8.

Regarding “TACTATAACCCACATACACACAAAAAAAAAAAAAAA [CACACA_site4454]”, the “gcPBM binding intensity (ln)” value turned out to be 6.41. Under TGGTTTATTTATTAAGTGCATAAATGCAATATATAT stands 9.94.

With “TATTATATATTTAATAGTACATATAAAATAATAAGG [XGTACX_site4823]”, the “gcPBM binding intensity (ln)” value stood at 6.45. For “TATATATAGAAACACACACACATATATATATATATT [CACACA_site4115]” the value was 6.81. Regarding “CATAAAATTGTATTTTGTACACATTTTGTATACATT [XGTACX_site5705]”, the “gcPBM binding intensity (ln)” value is 6.07.

As for “ATTTACATAAACGTCTGTACTAATATACAATTTTCT [XGTACX_site1700]”, the “gcPBM binding intensity (ln)” value is 6.34. Under “AAAAAAAAAGAGGCGTGTACATATATAATTTAAATT [XGTACX_site6827]” stands 7.02. For the sequence “ATAATAGAAACAAACAGTACACATACCTAAAAGGAA [XGTACX_site8647]”, the “gcPBM binding intensity (ln)” value came out at 6.41. For “TTATTAAAGTATAACTGTACATGCGAGTAAAAGAAT [XGTACX_site7388]” the value was 7.58; for “TGTTCTAATATTTGTTGTACATTTACATTTCTCTCT [XGTACX_site2585]”, 6.84. “TATTTTATTTCAAATCTTAATAATTGTAATTCTTCA [XGTACX_negctrl_site442]”: the “gcPBM binding intensity (ln)” value came to 5.93. “ATTTTTAAAATAAATACATGCATATATTTATATGTT [TGCATGCA_site394]”: the “gcPBM binding intensity (ln)” value amounted to 6.41.

Regarding “TTTTAATTAGAAATCATACACACATATATATATATA [CACACA_site174]”, the “gcPBM binding intensity (ln)” value came out at 9.11. For “TGTGTAATACATAATACACACATGTATATGTCGCAT [CACACA_site4757]” the value was 6.84; for “TTTTTTTTTGTTATGTTGCACTTTGCCATATTATTA [GTGCAC_site9844]”, 7.35; for “TTTCAAATGATTAAGTGTACATGTTTGCTTGCTCTT [XGTACX_site4697]”, 6.8. On to “AACAATATATTGATATTATTTTAAGTGATTATATAT [XGTACX_negctrl_site205]”, for which the “gcPBM binding intensity (ln)” value was determined as 6.04. Under “TATAAAAAAATAAAAGGAATATACTTGCAAAGGGTA [CACACA_negctrl_site1438]” stands 8.14.
